From ChEMBL document CHEMBL4888484, “Replenishing the malaria drug discovery pipeline: Screening and hit evaluation of the MMV Hit Generation Library 1 (HGL1) against asexual blood stage Plasmodium falciparum ,using a nano luciferase reporter read-out” (2022)
Among all 150,000 compounds or so, about 540 (0.36%) showed an effect of 50% or more. The list shows a part of the results.

Each molecule was assayed on Plasmodium falciparum (assay: Primary screen in NF54 nanoGlo assay, in single point, at 2uM, 72h; a lower Z score goes with more inhibition). Details: timepoint 72 hour.
Assay type: functional, Erythrocyte

| SMILES | % Inhibition [%] | Z score |
| --- | --- | --- |
| CN(C(=O)CCc1cncc(F)c1)c1cccc(S(C)(=O)=O)c1 | -8 | 1.55 |
| CC(C)(C)C1CCc2[nH]nc(C(=O)NCC3CC4C=CC3C4)c2C1 (stereo unspecified) | -11 | 1.33 |
| CC(=O)N[C@H]1CCN(C(=O)c2coc(COc3cccc4cccnc34)n2)C1 | -2 | 0.45 |
| CC1CCC2(CC1)NC(=O)N(Cc1cc(Cl)c3c(c1)OCCO3)C2=O (stereo unspecified) | 7 | -0.8 |
| Cc1ccc(S(=O)(=O)N2CCN(C(=O)CCc3cnccn3)CC2)cc1 | -5 | 0.74 |
| Cc1c(NC(=O)c2cc3c(s2)CCCC3)c(=O)n(-c2ccccc2)n1C | -1 | 0.1 |
| CC(=O)C[n+]1ccc2ccccc2c1Cc1ccccc1 | -1 | 0.1 |
| COc1cc(C(=O)NCC(=O)n2nc(C)cc2C)cc(OC)c1OC | -5 | 0.85 |
| COc1cc(C(=O)N2CCC[C@H]2c2nonc2C)ccc1OC1CCN(C(C)=O)CC1 | -7 | 1.23 |
| COc1ncccc1NC(=O)c1cccc(CN2[C@@H]3CC[C@H]2C[C@@H](O)C3)c1 | -22 | 2.49 |
| CCC1CN(c2ncnc3c2oc2ccccc23)CC(C)[S+]1[O-] (stereo unspecified) | 1 | -0.16 |
| CC(C)c1cnc(NCc2cscn2)s1 | -8 | 1.15 |
| N#Cc1c2c(c[nH]c1=O)CC1(CC2)OCCCCO1 | -10 | 1.89 |
| Cc1nccn1CCC1CCN(C(=O)c2cnn(C(C)C)c2)CC1 | -11 | 1.44 |
| CC(C)(C)c1nnc(N2CC3CN4CCCCC4C3C2)s1 (stereo unspecified) | -4 | 0.45 |
| O=C(c1ccc(OC(F)F)cc1)N1CCN(c2nc[nH]n2)CC1 | -13 | 1.35 |
| CCCCNC(=O)CN1CCn2nc(-c3ccc(Cl)cc3)cc2C1=O | -14 | 1.86 |
| Cc1cccc(C(=O)Nc2ccc3c(c2)OC2(CCCCC2)O3)n1 | 3 | -0.36 |
| O=C(Nc1nc2c(s1)CCCC2)c1ccsc1 | -6 | 0.8 |
| CC(C)n1nccc1NC(=O)c1ccnc(C2CC2)c1 | -5 | 0.65 |
| CS(=O)(=O)[C@H]1CCCN(c2cccnc2C#N)C1 | -13 | 1.65 |

| SMILES | % Inhibition [%] | Z score |
| --- | --- | --- |
| N#CC1(NC(=O)[C@@H]2CC(c3ccccc3)=NO2)CCCC1 | 1 | -0.13 |
| CC1CN(C[C@@H](O)c2ccccc2)CC(CO)O1 (stereo partly specified) | -12 | 2 |
| Cc1ccc(CNS(=O)(=O)c2cc(-c3nc(C)c(C(=O)N4CCCC4)s3)n(C)c2)o1 | 6 | -0.68 |
| CC(C)N(C)c1ccc(NC(=O)N2CCOCC3(CCOCC3)C2)cc1F | -8 | 1.17 |
| CN(C)[C@H]1CCN(CC(=O)NC2(c3cc(F)ccc3F)CC2)C1 | 8 | -1.27 |
| Fc1cccc(F)c1-n1c(CN2CCCCC2)csc1=S | 38 | -4.91 |
| CN(Cc1cnn(C)c1)Cc1cc(Br)cc2c1OCC2 | -3 | 0.29 |
| CCN(CCC1CCN(C(=O)Nc2ccc(OC3CCOCC3)c(C)c2)CC1)CC(C)C | 37 | -5.74 |
| CC(C)CCN(Cc1c(-c2ccccc2)noc1N1CCN(C)CC1)C(=O)c1ccc(Cl)cc1 | -1 | 0.14 |
| CC(C)c1cc(CN(C)C(=O)c2ccc3nnnn3c2)on1 | -15 | 1.88 |
| COc1ccc2[nH]cc([C@@H](CCc3ccccc3)CC(=O)Nc3ccccc3)c2c1 | -5 | 0.68 |
| CCN(CC)CCN(CC(C)C)c1ccc2nnc(C(F)(F)F)n2n1 | 0 | -0.02 |
| CN1CCN(C(=O)c2cn(CCN(C)S(=O)(=O)c3cccc(C(F)(F)F)c3)nn2)CC1 | -12 | 1.64 |
| COc1cccc(-c2ccnc3c(C(=O)NCc4ccc(F)cc4)cnn23)c1 | -13 | 2.35 |
| CCC[N+]1(CC#C[C@@](O)(c2ccccc2)C2(C)CCCC2)CCCCC1 | 51 | -4.55 |
| CCC(C)[C@H](NC(=O)C1CCCN(S(=O)(=O)c2ccc(OC)cc2)C1)C(=O)NCc1ccco1 (stereo partly specified) | 2 | -0.43 |
| CCOC(=O)c1ncn([C@@H]2O[C@H](CO)[C@H]3OC(C)(C)O[C@H]32)c1N | -9 | 1.15 |
| Cc1nc(N2C[C@@H](CN(C)C)[C@@H](CO)C2)nc2c1CCCC2 | 2 | -0.42 |
| Cc1nn(CCNS(C)(=O)=O)c(C)c1-c1ccco1 | 22 | -2.83 |
| Cc1noc(C)c1S(=O)(=O)N1CC=C(c2c(C)[nH]c3ccccc23)CC1 | 4 | -0.51 |
| Cc1cc(C(=O)N2CC[C@](O)(c3ccccc3)[C@H](N(C)C)C2)[nH]n1 | 4 | -0.54 |

| SMILES | % Inhibition [%] | Z score |
| --- | --- | --- |
| CC(C)c1ccc(Oc2cnn(-c3cccc(Cl)c3)c(=O)c2Nc2cccc(C(=O)NC3CC3)c2)cc1 | 26 | -7.11 |
| C(#Cc1ccccn1)CN1CCCCC1 | -7 | 1.18 |
| CS(=O)(=O)N1CCC[C@H]1C1CCC1 | -6 | 0.59 |
| CCOC(=O)[C@@H](NC(=O)c1cnnn1CC)C1CCCCCC1 | -4 | 0.79 |
| COC[C@@H]1CN(Cc2ccc(Cl)cc2F)C[C@H]1C(=O)NC1CC1 | 1 | -0.12 |
| O=C1CN(C(=O)Nc2ccncc2)C2(CCCCC2)C(=O)N1 | -6 | 1.05 |
| CC(C)(C)[C@H](Cn1ccnc1)n1cnc2ncccc2c1=O | -11 | 2.12 |
| N#Cc1ccccc1C(=O)NCc1cc2n(n1)CCCN(C1CCCCC1)C2 | -12 | 1.21 |
| O=C(c1cccc2[nH]ncc12)N1CCCC1 | 1 | -0.17 |
| C[C@@H](c1nccs1)N(C)c1nc2nonc2nc1NC1CC1 | -15 | 2.31 |
| Cc1nc(C)c(C)c(N2CCC[C@]3(CCC(=O)N(C4CCCC4)C3)C2)n1 | -11 | 1.34 |
| Cc1csc(N(C(=O)c2[nH]nc3c2CCCC3)C2CC2)n1 | 6 | -0.72 |
| Cc1ccc2c(c1)[C@]1(C(=O)N2)[C@@H]2C(=O)N(c3ccc4ccccc4c3)C(=O)[C@@H]2[C@@H]2CCCN21 | -13 | 1.71 |
| COCC(=O)N1CCc2cc(NC(=O)c3n[nH]c4ccccc34)ccc21 | -1 | 0.18 |
| Cc1noc(C)c1C(=O)N1CCCCC[C@H]1c1nn(C)cc1Cl | -10 | 0.91 |
| CCN(CCO)C(=O)c1cc(Cl)c(OCCC(C)C)c(OC)c1 | 7 | -0.94 |
| O=C(NCCN1CCC(CO)CC1)N1CC(Oc2ccccc2F)C1 | -17 | 1.55 |
| C#CCNC(=O)c1ccc(N[C@@H](C)COC)nc1 | -9 | 1.46 |
| O=C(NCC1CCCCC1)Nc1ccccc1N1CCCC1=O | 0 | 0.02 |
| O=C(Oc1ccc(N2CCCC2=O)cc1)c1ccc(F)c(F)c1 | -3 | 0.5 |
| CCOc1ccc(S(=O)(=O)N2CCC(n3cnc4cccnc43)CC2)cc1 | 2 | -0.31 |

| SMILES | % Inhibition [%] | Z score |
| --- | --- | --- |
| COCCN(Cc1c(-c2ccccc2)noc1N(C)C1CCCCC1)C(=O)CC(C)C | -6 | 0.81 |
| O=C(Nc1ncccn1)C1CCN(Cc2nnsc2Cl)CC1 | -10 | 1.26 |
| CN(CC1CCOCC1)S(=O)(=O)Cc1ccccc1 | -8 | 1.2 |
| CN(C(=O)CS(=O)(=O)Cc1ccn(C)c(=O)c1)C1CCCCC1 | 2 | -0.49 |
| O=C(C[C@H]1COc2ccccc2O1)N1CCC(COc2cc3c(nn2)CCCC3)CC1 | -15 | 1.71 |
| COCCc1nc(-c2cnc(C3CC3)nc2)n(CCO)n1 | -7 | 1.33 |
| CN(CC(=O)Nc1cc(S(C)(=O)=O)ccc1Cl)Cc1ccco1 | 2 | -0.3 |
| Cc1nc(C)c(Cc2cccc(F)c2)c(N2CCCN(C(=O)c3cc(C(F)(F)F)cc(C(F)(F)F)c3)CC2)n1 | -5 | 0.59 |
| C[C@@H](CCc1ccccc1)NC(=O)c1ccc(-n2nc(OCc3ccc(Cl)cc3)ccc2=O)cc1 | -6 | 1.02 |
| CCN(CC(=O)Nc1ccc(OC)cc1)C(=O)Cc1ccc(OC)c(S(=O)(=O)N2CCOCC2)c1 | -2 | 0.47 |
| Brc1cc2c(cc1CN1CCOC3CCCCC31)OCCCO2 (stereo unspecified) | -11 | 1.65 |
| COc1ccc(NC(=O)c2ccc(S(=O)(=O)N3CCc4ccccc43)cc2)c2ccccc12 | -7 | 1.16 |
| COc1cnc(NC(=O)N2CC=C(c3cc(C)cc(C)c3)CC2)s1 | -1 | 0.15 |
| Cc1cc2nnn([C@@H](C)CO)c2cc1C | -1 | 0.09 |
| COC(=O)c1ccc(-c2nc(CN(CC3CC3)C[C@H]3CCCO3)c(C)o2)cc1 | -10 | 1.24 |
| O=C(N[C@@H]1COCC[C@@H]1OCc1cscn1)c1ccc2scnc2c1 | -7 | 1.17 |
| CC(C)c1nccn1C[C@H]1CCc2ccccc2O1 | -4 | 0.74 |
| N#CCCN(CCO)Cc1ccccn1 | 6 | -0.59 |
| O=C(NCc1ccccc1CN1CCCC1CO)C1CC1c1ccc(Cl)cc1Cl (stereo unspecified) | -2 | 0.24 |
| CC(C)CS(=O)(=O)C1CN(C(=O)CCc2ccc(F)c(Cl)c2)C1 | -12 | 1.58 |
